# Data from patent US20240254117A1, “PYRIMIDO-HETEROCYCLIC COMPOUNDS, AND PREPARATION METHOD THEREFOR AND USE THEREOF” (SHANGHAI RINGENE BIOPHARMA CO., LTD., priority 2020, published 2024).
# Biological target: T1, KRAS^G12C/SOS1 (Homo sapiens, UniProt Q07889)
# T1 sequence (Q07889 1-1333): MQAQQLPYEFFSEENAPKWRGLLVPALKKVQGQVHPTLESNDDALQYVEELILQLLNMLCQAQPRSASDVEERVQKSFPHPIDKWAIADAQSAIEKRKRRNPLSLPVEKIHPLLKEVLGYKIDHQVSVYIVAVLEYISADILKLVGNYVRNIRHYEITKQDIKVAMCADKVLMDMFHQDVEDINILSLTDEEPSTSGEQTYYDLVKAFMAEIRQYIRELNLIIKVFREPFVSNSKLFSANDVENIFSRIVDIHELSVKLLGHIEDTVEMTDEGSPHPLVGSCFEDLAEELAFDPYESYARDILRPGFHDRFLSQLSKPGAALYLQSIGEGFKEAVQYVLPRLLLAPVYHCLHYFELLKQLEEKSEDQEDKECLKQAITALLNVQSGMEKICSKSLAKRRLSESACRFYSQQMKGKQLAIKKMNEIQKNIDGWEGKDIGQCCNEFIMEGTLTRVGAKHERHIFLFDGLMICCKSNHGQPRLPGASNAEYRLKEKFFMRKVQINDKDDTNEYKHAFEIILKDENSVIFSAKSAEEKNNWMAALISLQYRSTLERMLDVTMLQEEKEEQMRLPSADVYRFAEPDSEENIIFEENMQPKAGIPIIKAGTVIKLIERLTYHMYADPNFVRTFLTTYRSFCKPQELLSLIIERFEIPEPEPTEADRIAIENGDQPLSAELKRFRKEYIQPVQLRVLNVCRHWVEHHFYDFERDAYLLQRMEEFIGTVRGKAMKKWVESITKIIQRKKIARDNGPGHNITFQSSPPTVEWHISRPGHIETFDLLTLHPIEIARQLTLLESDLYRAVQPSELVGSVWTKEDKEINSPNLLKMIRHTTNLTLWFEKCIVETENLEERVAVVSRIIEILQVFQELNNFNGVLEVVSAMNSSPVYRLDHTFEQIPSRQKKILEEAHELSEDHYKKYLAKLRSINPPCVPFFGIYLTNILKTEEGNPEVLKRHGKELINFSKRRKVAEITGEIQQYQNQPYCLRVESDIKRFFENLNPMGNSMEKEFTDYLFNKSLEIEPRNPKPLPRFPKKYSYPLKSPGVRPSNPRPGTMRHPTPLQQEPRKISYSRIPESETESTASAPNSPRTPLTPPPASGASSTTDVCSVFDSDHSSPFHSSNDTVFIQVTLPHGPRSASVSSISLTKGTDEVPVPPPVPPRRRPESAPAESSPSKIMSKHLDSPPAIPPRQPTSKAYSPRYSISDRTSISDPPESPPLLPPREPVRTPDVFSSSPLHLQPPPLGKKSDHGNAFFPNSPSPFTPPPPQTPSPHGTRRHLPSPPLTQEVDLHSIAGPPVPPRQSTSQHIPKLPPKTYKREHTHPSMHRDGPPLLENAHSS
# Test: biochemical
row,IC50 [nM],SMILES
1,< 50,Cc1nc(N[C@H](C)c2ccc(-c3ccccc3CN(C)C)cc2)c2cc(C3CCOCC3)c(=O)n(C)c2n1 [Example 7]
2,< 50,Cc1nc(N[C@H](C)c2ccc(-c3ccccc3CN(C)C)s2)c2cc(-c3ccc(=O)n(C)c3)c(=O)n(C)c2n1 [Example 10]
3,< 50,Cc1nc(N[C@H](C)c2ccc(-c3ccc(Cl)cc3CN(C)C)s2)c2cc(-c3ccc(=O)n(C)c3)c(=O)n(C)c2n1 [Example 20]
4,< 50,Cc1nc(N[C@H](C)c2ccc(-c3ccccc3CN(C)C)s2)c2cc(-c3ccc(=O)n(C)c3)c3nccn3c2n1 [Example 25]
5,< 50,Cc1nc(N[C@H](C)c2sc(-c3ccccc3CN(C)C)cc2Cl)c2cc(-c3ccc(F)cc3)c(=O)n(C)c2n1 [Example 28]
6,50 to 100,"Cc1nc(N[C@H](C)c2cc(N)cc(C(F)(F)F)c2)c2cc(-c3ccc4c(c3)CCO4)c3nccn3c2n1 [Example 30, (R)-N-(1-(3-amino-5-(trifluoromethyl)phenyl)ethyl)-6-(2,3-dihydrobenzofuran-5-yl)-2-methylimidazole [1′,2′:1,6] pyridine [2,3-d] pyrimidin-4-amine]"
7,173,Cc1nc(N[C@H](C)c2cc(N)cc(C(F)(F)F)c2)c2cc(N3C4CCC3COC4)c(=O)n(C)c2n1 [Example 32]
8,32,Cc1nc(N[C@H](C)c2cc(N)cc(C(F)(F)F)c2)c2cc(N3CCC(C(=O)N4CCN(C)CC4)CC3)c(=O)n(C)c2n1 [Example 34]
9,< 50,Cc1nc(N[C@H](C)c2cc(N)cc(C(F)(F)F)c2)c2cc(N3CCC(C(=O)N(C)CCO)CC3)c(=O)n(C)c2n1 [Example 35]
10,22,Cc1nc(N[C@H](C)c2cc(N)cc(C(F)(F)F)c2)c2cc(N3CCN(C4CCCC4)CC3)c(=O)n(C)c2n1 [Example 36]
11,< 50,Cc1nc(N[C@H](C)c2ccc(-c3cc(F)c(F)cc3CN3CCCC3)cc2)c2cc(N3CCOCC3)c(=O)n(C)c2n1 [Example 37]
12,42,Cc1nc(N[C@H](C)c2cccc(-c3ccc(C(=O)NCCN(C)C)cc3)c2)c2cc(N3CCOCC3)c(=O)n(C)c2n1 [Example 39]
13,48,Cc1nc(N[C@H](C)c2cccc(C(F)(F)F)c2)c2cc(N3CCN(C4CCCC4)CC3)c(=O)n(C)c2n1 [Example 43]
14,> 100,Cc1nc(N[C@H](C)c2cccc(C(F)(F)F)c2)c2cc(NC3CCOCC3)c(=O)n(C)c2n1 [Example 46]
15,> 100,Cc1nc(N[C@H](C)c2cccc(C(F)(F)F)c2)c2cc(NCC3CCOCC3)c(=O)n(C)c2n1 [Example 47]
16,330,"Cc1nc(N[C@H](C)c2cc(N)cc(C(F)(F)F)c2)c2cc(OC3CCOCC3)c(=O)n(C)c2n1 [Example 48, (R)-4-((1-(3-amino-5-(ethyltrifluoromethyl)phenyl)ethyl)amino)-2,8-dimethyl-6-((tetrahydro-2H-pyran-4-yl)oxo) pyridine [2,3-d] pyrimidin-7 (8H)-one]"
17,172,"Cc1nc(N[C@H](C)c2ccc(-c3ccccc3CN3CCCC3)s2)c2cc(-c3ccc(F)cc3)c(=O)n(C)c2n1 [Example 49, (R)-6-(4-Fluorophenyl)-2,8-dimethyl-4-((1-(5-(2-(pyrrolin-1-ylmethyl)phenyl)thiophen-2-yl)ethyl)amino) pyridine [2,3-d] pyrimidin-7 (8H)-one]"

# The remaining lines, values behind:
row,SMILES,IC50 [nM]
1,Cc1nc(N[C@H](C)c2cccc(C(F)(F)F)c2)c2cc(C3CCOCC3)c(=O)n(C)c2n1 [Example 1],179
2,Cc1nc(N[C@H](C)c2cccc(C(F)(F)F)c2)c2cc(C(C)(C)C)c(=O)n(C)c2n1 [Example 2],817
3,Cc1nc(N[C@H](C)c2ccc(-c3ccccc3CN(C)C)s2)c2cc(C3CCOCC3)c(=O)n(C)c2n1 [Example 3],8.3
4,Cc1nc(N[C@H](C)c2ccc(-c3ccccc3CN(C)C)s2)c2cc(C3(C)CCOC3)c(=O)n(C)c2n1 (some centres unmarked) [Example 4],< 50
5,Cc1nc(N[C@H](C)c2ccc(-c3ccccc3CN(C)C)s2)c2cc(C3(C)CC3)c(=O)n(C)c2n1 [Example 5],< 50
6,Cc1nc(N[C@H](C)c2cccc(-c3ccccc3CN(C)C)c2)c2cc(C3CCOCC3)c(=O)n(C)c2n1 [Example 6],< 50
7,Cc1nc(N[C@H](C)c2cccc(C(F)(F)F)c2)c2cc(-c3ccc(=O)n(C)c3)c(=O)n(C)c2n1 [Example 8],94
8,Cc1nc(N[C@H](C)c2cccc(C(F)(F)F)c2)c2cc(C3=CCOCC3)c(=O)n(C)c2n1 [Example 9],118
9,Cc1nc(N[C@H](C)c2ccc(-c3ccccc3CN(C)C)s2)c2cc(-c3ccc4c(c3)CCO4)c(=O)n(C)c2n1 [Example 11],< 50
10,"Cc1nc(N[C@H](C)c2cccc(C(F)(F)F)c2)c2cc(N3CCOCC3)c(=O)n(C)c2n1 [Example 12, (R)-2,8-dimethyl-6-morpholin-4-((1-(3-(trifluoromethyl)phenyl)ethyl)amino) pyrido [2,3-d] pyrimidin-7 (8H)-one]",69
11,Cc1nc(N[C@H](C)c2cccc(C(F)(F)F)c2)c2cc(OC3CCOCC3)c(=O)n(C)c2n1 [Example 13],< 50
12,Cc1nc(N[C@H](C)c2ccc(-c3ccccc3CN(C)C)s2)c2cc(-c3ccc(F)cc3)c(=O)n(C)c2n1 [Example 14],< 50
13,Cc1nc(N[C@H](C)c2ccc(-c3ccccc3CN(C)C)s2)c2cc(-c3ccc4nccn4c3)c(=O)n(C)c2n1 [Example 15],< 50
14,COc1ccc(-c2cc3c(N[C@H](C)c4ccc(-c5ccccc5CN(C)C)s4)nc(C)nc3n(C)c2=O)cc1 [Example 16],< 50
15,Cc1nc(N[C@H](C)c2ccc(-c3ccccc3CN(C)C)s2)c2cc(-c3ccc(N)nc3)c(=O)n(C)c2n1 [Example 17],< 50
16,Cc1nc(N[C@H](C)c2ccc(-c3ccccc3CN3CCCC3)s2)c2cc(-c3ccc(=O)n(C)c3)c(=O)n(C)c2n1 [Example 18],< 50
17,Cc1nc(N[C@H](C)c2ccc(-c3cc(Cl)ccc3CN(C)C)s2)c2cc(-c3ccc(=O)n(C)c3)c(=O)n(C)c2n1 [Example 19],< 50
18,"Cc1nc(N[C@H](C)c2cccc(C(F)(F)F)c2)c2cc(C3CCOCC3)c3nccn3c2n1 [Example 21, (R)-2-methyl-6-(tetrahydro-2H-pyran-4-yl)-N-(1-(3-(trifluoromethyl)phenyl)ethyl)imidazo (1′,2′:1,6) pyrido [2,3-d] pyrimidin-4-amino]",254
19,Cc1nc(N[C@H](C)c2cccc(C(F)(F)F)c2)c2cc(-c3ccccc3)c3nccn3c2n1 [Example 22],> 100
20,Cc1nc(N[C@H](C)c2cc(N)cc(C(F)(F)F)c2)c2cc(-c3ccc(=O)n(C)c3)c3nccn3c2n1 [Example 23],30.5
21,Cc1nc(N[C@H](C)c2ccc(-c3ccccc3CN(C)C)s2)c2cc(C3CCOCC3)c3nccn3c2n1 [Example 24],< 50
22,Cc1nc(N[C@H](C)c2ccc(-c3cc(F)c(F)cc3CN(C)C)s2)c2cc(-c3ccc(=O)n(C)c3)c(=O)n(C)c2n1 [Example 26],> 100
23,"Cc1nc(N[C@H](C)c2cc(N)cc(C(F)(F)F)c2)c2cc(N3CCOCC3)c(=O)n(C)c2n1 [Example 31, (R)-4-((1-(3-amino-5-(trifluoromethyl)phenyl)ethyl)amino)-2,8-dimethyl-6-morpholinopyridine [2,3-d] opyrimidin-7 (8H)-one]",187
24,Cc1nc(N[C@H](C)c2cc(N)cc(C(F)(F)F)c2)c2cc(NC34CCC(CC3)CC4)c(=O)n(C)c2n1 [Example 33],> 100
25,CNS(=O)(=O)c1ccc(-c2cccc([C@@H](C)Nc3nc(C)nc4c3cc(N3CCOCC3)c(=O)n4C)c2)cc1 [Example 38],< 50
26,Cc1nc(N[C@H](C)c2ccc(-c3ccccc3CN3CCCC3)cc2)c2cc(N3CCOCC3)c(=O)n(C)c2n1 [Example 40],< 50
27,Cc1nc(N[C@H](C)c2cccc(C(F)(F)F)c2)c2cc(N3CCC(C(=O)N4CCN(C)CC4)CC3)c(=O)n(C)c2n1 [Example 42],34
28,Cc1nc(N[C@H](C)c2cc(N)cc(C(F)(F)F)c2)c2cc(NC3CCOCC3)c(=O)n(C)c2n1 [Example 44],385
29,Cc1nc(N[C@H](C)c2cc(N)cc(C(F)(F)F)c2)c2cc(NCC3CCOCC3)c(=O)n(C)c2n1 [Example 45],> 100
30,Cc1nc(N[C@H](C)c2ccc(-c3ccccc3CN3CCCC3)s2)c2cc(N3CCOCC3)c(=O)n(C)c2n1 [Example 50],17
